Measured values reported in PubChem BioAssay AID1508623 (National Center for Advancing Translational Sciences (NCATS), 2021).
Out of some 48,000 compounds screened, about 450 (0.94%) were called active. Inconclusive results (about 19%) are left out. Calls come from the whole dose curve; as a rule, active = well fitted inhibition curve with a large enough effect; inconclusive = small, poorly fitted or top-dose-only effect; inactive = no such curve, though single readings can be large or run the other way. Some of the results follow.

Assay: Primary qHTS for Identification of Small Molecule Inhibitors of Huntingtin Promoter Activity; note: nearly all actives have a fitted effect of over 50% in size
Conditions: HEK293 HTT promoter firefly luciferase reporter (activity 0% = vehicle and -100% = no light), 24 h; series mostly up to 57.5 µM; activity change, negative = inhibition: at the top concentration
Outline: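 Firefly luciferase signal from promoter-reporter HEK293 cells was scaled between vehicle (0%) and zero RLU (-100%). Compounds were tested at final concentrations of up to 57.5 uM over 24 h at 37 degrees C. PTC124 at 50 uM final served as control inhibitor.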

Activity change, negative = inhibition, inactive:
CN(C)c1ccc(NC(=O)Cn2nnc3sc4c(c3c2=O)CCC(C(C)(C)C)C4)cc1 (stereo not given) 1.74%, O=C(Nc1ccc(O)c(-c2nc3ccccc3o2)c1)c1ccc(Br)cc1 -24.5% [at 11.5 µM], CN(C)c1cccc(C(=O)Nc2nc3ccc(S(=O)(=O)N4CCCC4)cc3s2)c1 -32%, CCSc1ncc(Cl)c(C(=O)Nc2nc3ccc(Cl)cc3s2)n1 -5.89%, CN(C)c1ccc(CNC(=O)CN2C(=O)CSc3ccc(S(=O)(=O)N4CCCC4)cc32)cc1 -2.77%, Cc1cccc(NC(=O)c2oc3ccccc3c2NC(=O)c2cc(=O)c3ccc(C)cc3o2)c1 0%, COc1ccnc2[nH]cc(C(=O)C(=O)N3CCN(C(=O)c4ccccc4)C[C@@H]3C)c12 8.06%, Cc1ccc(-n2c(=O)c3c(cnn3C)n(Cc3ccc(Cl)cc3)c2=O)cc1 -13.9%, CCOc1ccc(CNC(=O)c2ccc3[nH]c(C)c(C)c3c2)cc1OC -5.91%, CCc1ccc(NC(=O)N(Cc2c[nH]c3ccccc23)C2CCCCC2)cc1 46.4%, CCOc1cc(C(=O)Nc2ccc(NC(=O)c3cc4ccccc4o3)c(OC)c2)cc(OCC)c1OCC -19.5%, Cc1nc2ccc(CN(C)c3ccc(C(=O)N[C@@H](CCC(=O)O)C(=O)O)s3)cc2c(=O)[nH]1 -13.3%, Cc1ccc(NC(=O)Nc2c[nH]c(=O)[nH]c2=O)c(Cl)c1 7.77%, CCc1ccccc1NC(=O)CSc1nnc(-c2ccc(OC)cc2)s1 4.19%, CC(=O)Nc1ccc(NC(=O)C2CCN(S(=O)(=O)c3ccc4c(c3)CCCC(=O)N4)CC2)cc1 -2.35%, Cc1cc2c(cc3c(SCc4ccc(Cl)cc4)nncn32)o1 -14.7%, COc1ccc(C)cc1NC(=O)c1cnc2ccc(C)cn2c1=O -13.6%, O=c1c2ccccc2n(Cc2c(F)cccc2Cl)c(=O)n1CCc1ccccc1 -6.79%, Cc1ccn2c(=O)cc(COc3ccc(NC(=O)COc4ccc(C)c(C)c4)cc3)nc2c1 -4.48%, Cc1ccc(OCC(=O)NCC(c2ccc(Cl)cc2)N2CCOCC2)cc1C (stereo not given) -28.3%, CCOc1cc(C2c3c(oc4ccccc4c3=O)C(=O)N2Cc2ccc(OC)cc2)ccc1O (stereo not given) 3.94%, O=C(CCCCn1c(=O)c2ccccc2n(Cc2cccc(F)c2)c1=O)NCc1ccc2c(c1)OCO2 -29.9%, Cc1cccc(Nc2c(-c3ccsc3)nc3nc(C)cc(C)n23)c1 -6.11%, Cc1ccc(C(=O)c2oc3ccccc3c2NC(=O)Cc2coc3ccc(C)cc23)cc1 -8.3%, COc1ccc(-n2cnc3cc(C(=O)NC4CCCCCC4)ccc32)cc1 -29.6%, CCOC(=O)c1c(C)[nH]c(C)c1S(=O)(=O)N(C)CC(=O)NCc1ccc(Cl)cc1 -16.1%, O=C(O)c1ccc2nc(-c3cc4cc(Cl)ccc4oc3=O)[nH]c2c1 -15.7%, Cc1ccc(-c2nc3c4ccccc4n(CC(=O)NCc4ccc(F)cc4)c(=O)n3n2)cc1 16.6%, Cn1c(SCC(=O)Nc2nc3ccccc3s2)ncc(C(=O)Nc2ccccc2)c1=O 2.54%, CCc1nc(-c2cc(S(=O)(=O)N3CCN(c4ccccc4)CC3)ccc2OC)no1 -5.61%, CCc1nn(CC(=O)NCCCN(CC)CC)c(=O)c2cc3occc3n12 -7.93%, Cc1ccc2onc(CNC(=O)NCc3ccc(Cl)cc3)c2c1 -12.6%, O=C1COc2cc(S(=O)(=O)CCC(=O)NC3CCCCC3)c(Cl)cc2N1 -16.5%, O=C(CSc1nccn1-c1cccc(Cl)c1)Nc1cccc2ccccc12 -31.8%, CCOc1ccc(CCNC(=O)CCCc2nnc3n(CC)c(=O)c4sccc4n23)cc1 -9.4%, O=C(O)c1c(-c2ccccc2)oc2ccc(OCc3c(F)cccc3Cl)cc12 -25.3%, Cn1c(=O)c2c(-c3ccc(Br)cc3)n(Cc3ccc(F)cc3)cc2n(C)c1=O -14.4%, COc1ccc(-c2nc3cc(C)ccn3c2NC(=O)c2cccc(F)c2)cc1 13.6%, COc1ccc(CCNC(=O)C2CCN(Cc3nc(-c4ccc(OC)c(OC)c4)oc3C)CC2)cc1OC 6.68%, Cc1ccc(/C=C(\C#N)C(=O)Nc2cccc(Cl)c2)o1 77%, CCC1Oc2ccccc2N(CC(=O)NCc2cc(OC)ccc2OC)C1=O (stereo not given) -14.3%, CCN(CC)C(=O)Cn1c(=O)n(CC2CCC(C(=O)NC)CC2)c(=O)c2sccc21 (stereo not given) 9.66%, O=C(CSc1nc(-c2ccccc2F)nc2cc(=O)[nH]n12)Nc1cccc(C(F)(F)F)c1 -20.5%, CCOc1ccccc1-c1nc(Cn2c(=O)cc(C)c3c(C)nn(-c4ccccc4)c32)c(C)o1 0%, COC(=O)c1sc(-c2ccccc2)cc1NC(=O)Nc1ccc(F)cc1 -25.1%, COc1ccc(C(CC(=O)NCc2ccc(Cl)cc2)N2Cc3ccccc3C2=O)cc1OC (stereo not given) -29%, Cc1ccc(OCC(=O)Nc2ccc(S(=O)(=O)Nc3cc(C)on3)cc2)c(Br)c1 -26.5% [at 11.5 µM], O=C(NCc1ccccc1Cl)c1ccc(NC(=O)N2CCCCc3ccccc32)cc1 -22.2%, CCOc1ccc(NC(=O)CSC2=Nc3ccccc3C3=NC(CC(=O)NCc4ccc5c(c4)OCO5)C(=O)N23)cc1 (stereo not given) 0.987%, Cc1ccc(S(=O)(=O)c2c(Nc3cccc(Cl)c3)sc(C(=O)c3ccc4c(c3)OCO4)c2N)cc1 -16.5%, COc1ccc(-c2nc3ccccc3n2Cc2ccc(Cl)cc2)cc1 -27.7%, Cc1ccc(C(=O)c2oc3ccccc3c2NC(=O)Cc2coc3c(C)c(C)ccc23)cc1 -10.9%, COc1cc(C)ccc1OCCSc1nnc(-c2ccc(C)cc2)o1 9.88%, Cc1cccc(NC(=O)CN(C)S(=O)(=O)c2ccc3c(c2)c(=O)n(C)c(=O)n3C)c1 -12.1%, O=C(NCCS(=O)(=O)N1CCN(c2ccccc2)CC1)C1CC(=O)N(c2ccccc2)C1 (stereo not given) -6.65%, COc1ccccc1C(=O)Nc1ccc(-c2nc3ccccc3s2)c(C)c1 86.6%, Cc1cc(Br)ccc1NC(=O)C1(S(=O)(=O)c2ccc(Cl)cc2)CC1 -4.51%, CCOc1ccc(CCNc2nc3c(-c4ccc(C)cc4)nnn3c3ccccc23)cc1OCC -14.4%, Cc1ccc(-c2ccc(=O)n(CC(=O)Nc3ccc(F)c(Cl)c3)n2)cc1C -9.87%, COc1cccc(NC(=O)CSC2=Nc3ccccc3C3=NC(CCC(=O)NCc4ccco4)C(=O)N23)c1 (stereo not given) -21.1%
